# Reference: PubChem BioAssay AID686978 (National Center for Advancing Translational Sciences (NCATS), 2013)
# “And” between values parts separate entries of the source, which are not always exact repeats. Equal entries are not always repeated. Screen size: about 420,000 compounds; about 64,000 (15%) were called active. This list was built around the results that the source calls inconclusive (neither active nor inactive); the mix of calls is not that of the screen. Calls come from the whole dose curve; as a rule, active = well fitted inhibition curve with a large enough effect; inconclusive = small, poorly fitted or top-dose-only effect; inactive = flat fitted curve, though single readings scatter. Potencies beside an inconclusive call are fits to weak or partial responses and may not hold up.
# Test: qHTS for Inhibitors of human tyrosyl-DNA phosphodiesterase 1 (TDP1): qHTS in cells in absence of CPT; note: nearly all actives have a fitted effect of over 55% in size
# Conditions: DT40 Tdp1-/- hTDP1 cells, no CPT, ATP luminescence, 48 h; activity change, negative = growth inhibition: at 46.2 µM (top of the series)
# Method in brief: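 Chicken DT40 Tdp1-/- cells stably complemented with human TDP1 were seeded at 400 cells/well with DMSO in place of 20 nM camptothecin. After compound pinning, cells grew at least 48 hr at 37 °C; viability read by CellTiter-Glo luminescence.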
# % is set by controls: 0 for no effect and ±100 for the full control effect; potency is the fitted concentration of half-maximal effect; tags give direction and shape of the fitted curve.
Structure (SMILES),Potency,"activity change, negative = growth inhibition"
COc1ccc(NC(=O)CCN2CCN(C/C=C/c3ccccc3)CC2)cc1,"inconclusive: 20.6 µM [inhibitor, partial curve]",–
O=S1(=O)CC(O)C(N2CCCCC2)C1 (centres undefined),inactive,–
O=C(NC1CC1)C1CC(=O)N(C2CCCCC2)C1 (centres undefined),inactive,–
Cc1ccc(-n2ncc3c(=O)[nH]c(SCC(=O)N4CCOCC4)nc32)cc1,inactive,–
CCOC(=O)C1=CCC(c2ccc(C)cc2)N(S(=O)(=O)c2ccc(C)cc2)C1 (centres undefined),active: 18.4 µM,–
O=C1CCN(Cc2ccccc2)C=C1c1ccc(Cl)cc1,"inconclusive: 20.6 µM [inhibitor, single point]",–
CCOc1ccc(-c2cn3nc(CC(C)C)sc3n2)cc1,"inconclusive: 7.31 µM [inhibitor, partial curve]",–
O=C(Nc1ccc2c(c1)N(S(=O)(=O)c1cccs1)CCC2)c1c(F)cccc1Cl,"inconclusive: 20.6 µM [inhibitor, single point]",–
Cn1nc(C(C)(C)C)cc1N1C(=O)CCC1(C)C(=O)Nc1ccc2c(c1)OCCO2 (centres undefined),inactive,–
Cn1cccc1/C=N/NC(=O)c1cc(-c2cccs2)nc2ccccc12,active: 5.8 µM,–
COc1ccccc1C(=O)NC(CCSC)C(=O)OCC(=O)N1CCN(S(=O)(=O)c2ccc(C)cc2)CC1 (centres undefined),"inconclusive: 18.4 µM [inhibitor, single point]",–
CNC(=O)CCC(=O)Nc1ccc(C)cc1,inactive,–
COc1ccc(NC(=O)CN(C)C(=O)c2cc(-c3ccco3)nc3ccccc23)cc1,"inconclusive: 18.4 µM [inhibitor, single point]",–
Cc1cc(Oc2ncccc2[N+](=O)[O-])c2cc(Cl)ccc2n1,"inconclusive: 20.6 µM [inhibitor, single point]",–
COc1ccc(C)cc1NC(=O)CSc1nnnn1Cc1ccccc1,"inconclusive: 29.1 µM [inhibitor, single point]",–
COCc1cc(=O)n2[nH]c(-c3ccsc3-n3c(C)ccc3C)cc2n1,"inconclusive: 25.9 µM [inhibitor, single point]",–
CCOC(=O)[C@]12CCC=C1N(Cc1cccc3ccccc13)C(=O)[C@H](CC(=O)N1CCSCC1)C2,active: 18.4 µM,–
CN(C)CCCOc1cccc(Oc2ccccc2)c1,"inconclusive: 32.6 µM [inhibitor, partial curve, poor fit]",–
COc1cccc(NC(=O)C2=COCCO2)c1,inactive,–
C1CCC(CNc2c3c(nc4nnnn24)CCCC3)CC1,active: 11.6 µM,–
CCN(CC)c1ccc(/C=c2/sc3nnc(-c4ccccc4C)n3c2=O)cc1,"inconclusive: 25.1 µM [inhibitor, single point]",–
O=C(CNC(=O)c1cc(Cl)nc2ccccc12)Nc1ccccc1Br,–,inconclusive: -32.7% [inhibitor]
CCOc1cc(/C=C2\N=C(SC(C)C(N)=O)N(c3ccc(OC(F)F)cc3)C2=O)ccc1O (centres undefined),active: 10.3 µM,–

Structure (SMILES),Potency,"activity change, negative = growth inhibition"
Cc1ccc(-c2cc(C(=O)N3CCc4ccccc4C3)no2)cc1,inactive,–
Nc1c(Cl)cc(-c2csc(N3CCCC3c3nc4cc(Cl)c(N5CCCCC5)cc4n3CCOCCO)n2)cc1Cl (centres undefined),"inconclusive: 20.6 µM [inhibitor, partial curve]",–
COc1ccc(CCC(=O)N2CCN(S(=O)(=O)c3ccc(OC)c([N+](=O)[O-])c3)CC2)cc1,"inconclusive: 29.1 µM [inhibitor, single point]",–
CCN(CC)c1ccc(C2C(C(N)=O)=C(C)Nc3nc(SCc4ccccc4Cl)nn32)cc1 (centres undefined),"inconclusive: 23.1 µM [inhibitor, single point]",–
COc1ccc2c(Cl)c(C(=O)NC3CCS(=O)(=O)C3)sc2c1 (centres undefined),–,inconclusive: -30.9% [inhibitor]
O=c1[nH]nc(Cc2ccc(Cl)cc2Cl)c2ccccc12,inactive,–
CCCCNC(=O)Nc1ccccc1C(=O)Nc1ccc(OC)cc1,"inconclusive: 20.6 µM [inhibitor, single point]",–
CC1Oc2cc3oc4c(O)c5c(cc4c(=O)c3c(O)c2C1(C)C)C=CC(C)(C)O5 (centres undefined),active: 20.6 µM,–
Cc1cc(NC(=O)c2ccccc2Cl)c(C(C)C)cc1O,"inconclusive: 29.1 µM [inhibitor, single point]",–
COCCN(Cc1ccccc1)C(=O)c1cccc(S(=O)(=O)N2CCCc3ccccc32)c1,active: 9.2 µM,–
O=C(NNC(=O)c1cc(-c2ccc(Cl)c(Cl)c2)nc2ccccc12)Nc1ccccc1,"inconclusive: 18.4 µM [inhibitor, single point]",–
Nc1ccc(Nc2ccccc2N)cc1,active: 10.3 µM,–
CCOC(=O)c1cc2n(n1)C(C(F)(F)F)CC(C)N2 (centres undefined),inactive,–
COc1ccccc1-c1ccc(SCc2ccccc2F)nn1,"inconclusive: 3.26 µM [inhibitor, full curve]",–
CCOC(=O)C1CCN(C(=O)COc2ccc(Cl)cc2C)CC1,–,inconclusive: -30.3% [inhibitor]
Cc1ccc(-n2nc3c(=O)n(CCCC(=O)NCc4cccc(Cl)c4)nc(C)c3c2C)cc1,"inconclusive: 29.1 µM [inhibitor, single point]",–
CC(C)Cn1c(N2CCN(C(=O)/C=C/c3ccccc3)CC2)nc2ccccc21,active: 9.2 µM,–
COc1cc(/C=N/NC(=O)c2ccncc2)ccc1OCC(=O)Nc1ccccc1,"inconclusive: 25.9 µM [inhibitor, single point]",–
CCC(=O)Nc1c(C(=O)Nc2cccc(OC)c2)oc2ccccc12,"inconclusive: 29.1 µM [inhibitor, single point]",–
Cc1cccc(CN2CCc3c([nH]c4ccccc34)C2CC(C)C)n1 (centres undefined),inactive,–
Cc1cc(C)c(NC(=O)c2ccc(S(=O)(=O)N3CCOCC3)cc2)c(C)c1,"inconclusive: 23.1 µM [inhibitor, single point]",–
CC1SC(C)C(=O)N(CC(=O)Nc2ccc([N+](=O)[O-])cc2)C1=O (centres undefined),inactive,–
CCN(CC)S(=O)(=O)c1cccc(C(=O)Nc2ccccc2C(=O)Nc2ccc(OC)cc2)c1,active: 10.3 µM,–

Structure (SMILES),Potency,"activity change, negative = growth inhibition"
Cc1cccc(C)c1OCC(=O)N(Cc1ccc(Cl)cc1)C1CCS(=O)(=O)C1 (centres undefined),"inconclusive: 20.6 µM [inhibitor, single point]",–
CC(=O)Nc1ccc(CNc2nc3cc(-c4ccc(F)cc4)sc3c(=O)n2C)cc1,"inconclusive: 23.1 µM [inhibitor, single point]",–
C[C@H](CO)N1C[C@H](C)[C@@H](CN(C)C(=O)Nc2ccc3c(c2)OCO3)Oc2ccc(NC(=O)Nc3ccc(C(F)(F)F)cc3)cc2C1=O,"inconclusive: 29.1 µM [inhibitor, single point]",–
CCCCc1nn2c(=O)cc(COC(=O)CNC(=O)COc3ccc(C)cc3)nc2s1,inactive,–
CO[C@@H]1CN(C)C(=O)c2cc(NC(=O)NC3CCCCC3)ccc2OC[C@@H](C)N(CCc2ccccc2)C[C@H]1C,active: 16.4 µM,–
CC1CCCCN1c1ncnc(N)c1[N+](=O)[O-] (centres undefined),"inconclusive: 20.6 µM [inhibitor, single point]",–
COc1ccc(OC)c(-c2csc(CCn3nc(C)cc3C)n2)c1,inactive,–
CCOC(=O)CSc1ccc(C(=O)Nc2ccc(OC)cc2)cn1,"inconclusive: 13 µM [inhibitor, partial curve, poor fit]",–
CCN(CC)S(=O)(=O)c1ccc(N2CCCCC2)c(NC(=O)c2ccncc2)c1,"inconclusive: 29.1 µM [inhibitor, single point]",–
O=C(O)c1ccccc1-c1c2cc(I)c(=O)c(I)c-2oc2c(I)c(O)c(I)cc12,"inconclusive: 15.8 µM [inhibitor, partial curve, poor fit]",–
COCCn1c(SCC(=O)N2CCc3ccccc3C2)nc2cc(Cl)ccc2c1=O,active: 14.6 µM,–
CCOc1ccc(NC(=O)c2c(NCc3cccs3)sc3c2CCC(C)C3)cc1 (centres undefined),"inconclusive: 25.9 µM [inhibitor, single point]",–
CC1CC(C)(C)CC2(C1)NC(=O)N(CC(=O)Nc1cc(C(F)(F)F)ccc1N1CCCCC1)C2=O (centres undefined),"inconclusive: 29.1 µM [inhibitor, single point]",–
CC(C)NC(=O)CSc1c2c(nc3ccccc13)CCCC2,"inconclusive: 11.6 µM [inhibitor, partial curve]",–
CCS(=O)(=O)N1Cc2ccccc2CC1C(=O)Nc1ncc(C)s1 (centres undefined),inactive,–
Cc1ccc(NC(=S)Nc2ccc(F)cc2)cc1C,"inconclusive: 20.6 µM [inhibitor, single point]",–
CC(=O)Nc1cccc(C(=O)/C=C/c2ccc[nH]2)c1,"inconclusive: 16.4 µM [inhibitor, single point]",–
COc1ccc(-c2cnc(N)nc2-c2ccc(OCc3ccccc3)cc2O)cc1,"inconclusive: 25.9 µM [inhibitor, single point]",–
COc1ccc(N2CCN(CC(O)COc3c(OC)cccc3OC)CC2)cc1 (centres undefined),"inactive and inconclusive: 16.4 µM [inhibitor, single point]",–
CC1(C)CC(c2nc(-c3ccc([N+](=O)[O-])cc3)cs2)CCO1 (centres undefined),"inconclusive: 29.1 µM [inhibitor, single point]",–
CCc1ccc(CCOc2ccc(CC3SC(=O)NC3=O)cc2)nc1 (centres undefined),"inactive and inconclusive: 23.1 µM [inhibitor, single point] and inconclusive: 25.9 µM [inhibitor, single point]",–
CN1CCN(c2ccc(S(=O)(=O)N3CCCCC3)cc2NC(=O)CSC(C)(C)C)CC1,inactive,–
Cc1nn(C)c(C(=O)Nc2ccn(Cc3c(F)c(F)cc(F)c3F)n2)c1[N+](=O)[O-],"inconclusive: 32.6 µM [inhibitor, partial curve, poor fit]",–
